B1: glmS ribozyme (parent)
chain: AUAAAAGCGCCAGAACUACAGAAAUGUAGUUGACGAGGAGGAGGUUUAUCGAAUUUUCGGCGGAUGCCUCCAAA

Common to all, as to conditions: with glucosamine-6-phosphate
Variants of B1 are the subject of data set [1]. Nature of the data set: self-cleavage kobs at 640 uM GlcN6P; higher = faster cleavage; RNA array. Put shortly: (§1)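 Barcoded ribozyme variants on sequenced MiSeq chips were transcribed in situ by E. coli RNA polymerase and followed at 37 °C through a hybridised Cy3 probe. Glucosamine-6-phosphate at 40 μM to 10 mM in HEPES/KCl/Mg(OAc)2 buffer was flowed in, and tiles were imaged over ~14 h. Signals were normalised to baseline and to non-cleaving reference variants, and per-tile medians were fit to one- or two-exponential decays to give kobs. Weighted Michaelis–Menten fits across concentrations gave kcat and KM.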

Data set [2] covers variants of B1. Description: self-cleavage kobs at 2500 uM GlcN6P; higher = faster cleavage; RNA array. In short, it runs like this: as §1
In data set [3] the parent is B1. Description: self-cleavage kobs at 160 uM GlcN6P; higher = faster cleavage; RNA array. In short, it runs like this:
as §1

The variants in data set [4] derive from B1. Nature of the data set: self-cleavage kobs at 10000 uM GlcN6P; higher = faster cleavage; RNA array. Put shortly: as §1

± gives the standard error. Variants at the floor of the assay are shown more often than the library holds them.

Regarding AUAAAAUCGCCAGAACUACAGAAAUGUAGUUGACGAGGAGGAGGUUUAUCGAAUUUUCGGUGGAUGCGUCCAAA [G7U C61U C68G], the “self-cleavage kobs at 640 uM GlcN6P” value with glucosamine-6-phosphate [1] worked out at 0.00114 ± 0.00049 s⁻¹.
Turning to AUAAAAUCGCCAGAACUACAGAAAUGUAGUUGACGAGGAGGAUGUUUAUCGAAUUUUCGGCGGAUGGCUCCAAA [G7U G43U C67G], the “self-cleavage kobs at 640 uM GlcN6P” value with glucosamine-6-phosphate [1] was less than 1e-05 s⁻¹.
Regarding AUAAAAUCGUCAGAACUACAGAAAUGUAGUUGACGAGGAGGAGGUUUAUCGAAUUUUCGGCGGAUGCCUCCAAA [G7U C10U], the “self-cleavage kobs at 640 uM GlcN6P” value in the data set with glucosamine-6-phosphate [1] is less than 1e-05 s⁻¹. Moreover, the “self-cleavage kobs at 2500 uM GlcN6P” value in the data set with glucosamine-6-phosphate [2] was less than 1e-05 s⁻¹.
For AUAAAAUCGCCAGAACUACAGAAAUGUAGUUGACUAGGAGGAGGGUUAUCGAAUUUUCGGCGGAUGCCUCCAAA [G7U G35U U45G], the “self-cleavage kobs at 640 uM GlcN6P” value with glucosamine-6-phosphate [1] was less than 1e-05 s⁻¹. Further, the “self-cleavage kobs at 160 uM GlcN6P” value with glucosamine-6-phosphate [3] was less than 1e-05 s⁻¹.
Regarding AUAAAAUCGCCAGAACUACAGAAAUGUAGUUGACGAGGACGAGGUUUAACGAAUUUUCGGCGGAUGCCUCCAAA [G7U G40C U49A], the “self-cleavage kobs at 640 uM GlcN6P” value in the data set with glucosamine-6-phosphate [1] is less than 1e-05 s⁻¹.
As to AUAAAAUCGCCAUUACUACAGAAAUGUAGUUGACGAGGAGGAGGUUUGUCGAAAUUUCGGCGGAUGCCUCCAAA [G7U G13U A14U A48G U54A], the “self-cleavage kobs at 640 uM GlcN6P” value in the data set with glucosamine-6-phosphate [1] is less than 1e-05 s⁻¹. The “self-cleavage kobs at 160 uM GlcN6P” value with glucosamine-6-phosphate [3] is less than 1e-05 s⁻¹. In addition, the “self-cleavage kobs at 2500 uM GlcN6P” value with glucosamine-6-phosphate [2] is less than 1e-05 s⁻¹.
AUAAAAUCGCCAGAACUACAGAAAUGUAGUUGACGAGCAGGAGGUUCAACGAAUUUUCGGCGGAUGCCUCCAAA [G7U G38C U47C U49A]: the “self-cleavage kobs at 640 uM GlcN6P” value with glucosamine-6-phosphate [1] was less than 1e-05 s⁻¹.
Consider AUAAAAUCGCCAGAACUACAGAAAUGUAGUUGACUAGGAGGAGGUUUAUCGCAUUUUCGGCGGAUGCAUCCAAA [G7U G35U A52C C68A], for which the “self-cleavage kobs at 640 uM GlcN6P” value with glucosamine-6-phosphate [1] was less than 1e-05 s⁻¹. Besides, the “self-cleavage kobs at 2500 uM GlcN6P” value with glucosamine-6-phosphate [2] was less than 1e-05 s⁻¹.
Take AUAAAAUCGCCACAACUACAGAAAUGUAGUUGACGAGGAGGAGGUUUAUCGAAUUUUCGGCGGAUGCCUCCAAA [G7U G13C]: in the data set with glucosamine-6-phosphate [1], the “self-cleavage kobs at 640 uM GlcN6P” value was less than 1e-05 s⁻¹. Moreover, the “self-cleavage kobs at 2500 uM GlcN6P” value in the data set with glucosamine-6-phosphate [2] was less than 1e-05 s⁻¹. In addition, in the data set with glucosamine-6-phosphate [4], the “self-cleavage kobs at 10000 uM GlcN6P” value is less than 1e-05 s⁻¹.
As for AUAAAAUCGCGAGAACUACAGAAAUGUAGUCGACGAGGAGGAGGUUUAUCGAAUUUUCGGCGGAUGCCUCCAAA [G7U C11G U31C], in the data set with glucosamine-6-phosphate [1], the “self-cleavage kobs at 640 uM GlcN6P” value was less than 1e-05 s⁻¹. In addition, the “self-cleavage kobs at 2500 uM GlcN6P” value with glucosamine-6-phosphate [2] is less than 1e-05 s⁻¹.
Take AUAAAAUCGCCAGAACUACAGAAAUGUAUUUGACGAGGAGGAGGUUUAUCGAAUUUUCGGCGGAUGCCUCCAAA [G7U G29U]: the “self-cleavage kobs at 640 uM GlcN6P” value with glucosamine-6-phosphate [1] was less than 1e-05 s⁻¹. For the same variant, the “self-cleavage kobs at 160 uM GlcN6P” value with glucosamine-6-phosphate [3] was less than 1e-05 s⁻¹.
Turning to AUAAAAUCGCCAGAACUACAGAAAUGUAGUUGACGAGGAGAAUGUUUAUCGAAUUUUCGGCGGAUGCCUCCAAA [G7U G41A G43U], the “self-cleavage kobs at 640 uM GlcN6P” value in the data set with glucosamine-6-phosphate [1] was less than 1e-05 s⁻¹. Further, in the data set with glucosamine-6-phosphate [2], the “self-cleavage kobs at 2500 uM GlcN6P” value is less than 1e-05 s⁻¹.
Consider AUAAAAUCGCCAGAACUACAGAAAUGUAGUUCACGAGCAGGUGGUUUAUUGAAUUUUCGGCGGAUGCCUCCAAA [G7U G32C G38C A42U C50U], for which the “self-cleavage kobs at 640 uM GlcN6P” value with glucosamine-6-phosphate [1] was less than 1e-05 s⁻¹.
In the case of AUAAAAUCUCCAGAACUACAGAAAUGUAGUUGACGAGGAGGAGGUUCAUCGAAUGUUCGGCCGAUGCCUCCAAA [G7U G9U U47C U55G G62C], the “self-cleavage kobs at 640 uM GlcN6P” value with glucosamine-6-phosphate [1] was less than 1e-05 s⁻¹.
For the variant AUAAAAUCGCCAGAACUACAGAAAUGUAGUUGACGAGGAGGAGGUUUAUCGAAUUUUCGGCGGAUGCCUACAAA [G7U C70A], in the data set with glucosamine-6-phosphate [1], the “self-cleavage kobs at 640 uM GlcN6P” value turned out to be 0.000596 ± 0.00023 s⁻¹.
AUAAAAUCGCCAGAACUACAGAAAUGUAGUUGACGAGGAUGAGGUUUAUCGAAUUUUCGGCGGAUGCCUCCAAA [G7U G40U]: the “self-cleavage kobs at 640 uM GlcN6P” value with glucosamine-6-phosphate [1] is less than 1e-05 s⁻¹. The “self-cleavage kobs at 160 uM GlcN6P” value with glucosamine-6-phosphate [3] is less than 1e-05 s⁻¹. In the data set with glucosamine-6-phosphate [2], the “self-cleavage kobs at 2500 uM GlcN6P” value was less than 1e-05 s⁻¹. For the same variant, the “self-cleavage kobs at 10000 uM GlcN6P” value with glucosamine-6-phosphate [4] was less than 1e-05 s⁻¹.
For the variant AUAAAAUCUCCAGAACUACAGAAAUGUAGGUGACGAGGAGGAGGUUUAUCGAAUUUUCGGCGGAUGCCUCCAAA [G7U G9U U30G], in the data set with glucosamine-6-phosphate [1], the “self-cleavage kobs at 640 uM GlcN6P” value was less than 1e-05 s⁻¹. In addition, in the data set with glucosamine-6-phosphate [2], the “self-cleavage kobs at 2500 uM GlcN6P” value was less than 1e-05 s⁻¹.
Consider AUAAAAUCGUCAGAACUACAGAAAUGUAGUUGCCGAGGAGGAGGUUUAUCGAAUUUUCGGCGGAUGCCUCCAAA [G7U C10U A33C], for which, in the data set with glucosamine-6-phosphate [1], the “self-cleavage kobs at 640 uM GlcN6P” value was less than 1e-05 s⁻¹.
For the variant AUAAAAUCGCCAGAACUACAGAAAUGUAGUUGACCAGGAGGAGGUUUAUCGAAUUUUCGGCGGAUGCCUCUAAA [G7U G35C C71U], the “self-cleavage kobs at 640 uM GlcN6P” value with glucosamine-6-phosphate [1] is less than 1e-05 s⁻¹. Besides, in the data set with glucosamine-6-phosphate [3], the “self-cleavage kobs at 160 uM GlcN6P” value was less than 1e-05 s⁻¹.
As to AUAAAAUCGCCAGAACUACAGAAAUGUAGUUGACAACGAGGAGGUGAAUCGAAUUUUCGGCGGAUGCCUGCAAA [G7U G35A G37C U46G U47A C70G], the “self-cleavage kobs at 640 uM GlcN6P” value with glucosamine-6-phosphate [1] was less than 1e-05 s⁻¹. For the same variant, the “self-cleavage kobs at 160 uM GlcN6P” value with glucosamine-6-phosphate [3] is less than 1e-05 s⁻¹. Also, the “self-cleavage kobs at 2500 uM GlcN6P” value in the data set with glucosamine-6-phosphate [2] is less than 1e-05 s⁻¹.

Source of the values: the supplement of paper PMC7125110.
